The full ranking holds about 33,000 sequences; the median of “E-score (-0.5 to 0.5)” is about -0.032, and the highest 2% start at about 0.36. The list shows a part of the results.
biological target: T1, Sko1 (UniProt Q02100); experiment: PBM E-score (8-mer binding enrichment) (E-score (-0.5 to 0.5)); higher = stronger / more preferred TF binding; most listed sequences are background and not binding sites; conditions: protein concentration: 200 nM; construct: GST-full length
T1 sequence: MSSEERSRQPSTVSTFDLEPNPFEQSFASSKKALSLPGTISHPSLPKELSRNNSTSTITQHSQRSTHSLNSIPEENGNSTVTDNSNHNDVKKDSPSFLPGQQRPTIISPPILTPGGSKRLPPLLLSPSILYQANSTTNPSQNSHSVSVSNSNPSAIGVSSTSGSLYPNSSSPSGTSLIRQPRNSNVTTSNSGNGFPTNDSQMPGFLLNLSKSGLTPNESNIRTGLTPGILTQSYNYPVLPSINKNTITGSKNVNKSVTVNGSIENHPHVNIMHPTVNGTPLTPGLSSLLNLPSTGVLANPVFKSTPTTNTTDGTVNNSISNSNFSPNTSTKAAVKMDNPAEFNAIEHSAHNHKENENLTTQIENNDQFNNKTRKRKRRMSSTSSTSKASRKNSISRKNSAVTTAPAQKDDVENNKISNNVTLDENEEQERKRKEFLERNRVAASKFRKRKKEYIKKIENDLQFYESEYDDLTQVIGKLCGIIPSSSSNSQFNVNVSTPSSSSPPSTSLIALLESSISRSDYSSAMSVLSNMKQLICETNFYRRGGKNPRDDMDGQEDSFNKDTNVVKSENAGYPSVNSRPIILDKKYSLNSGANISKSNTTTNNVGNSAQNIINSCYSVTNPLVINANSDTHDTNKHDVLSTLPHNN
Procedure, shortened: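 Yeast transcription factors, full-length or as DNA-binding domains, were expressed with a GST tag using PURExpress in vitro transcription/translation. At about 100-200 nM they were applied to universal all-10-mer Agilent arrays, double-stranded by primer extension on fresh or once-stripped slides. Fluorescent anti-GST detected bound protein, and masliner normalised the scans. E-scores for ungapped eight-base words, pooled with reverse complements, came from the Universal PBM Analysis Suite.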

Sequence | PBM E-score
TTGACCAA | -0.232
ACATGGCC | -0.00558
ACAACCTA | 0.0669
CGAAGGAG | -0.00836
ACGAGTCG | 0.0261
CGTAACAA | 0.344
ATAAACTA | 0.157
ACTCGAAA | 0.0248
ACGTCCGC | 0.268
TACATCTA | 0.19
GAGAGACC | -0.258
ACAACCGT | -0.0828
GTCTCTGA | -0.0137
CGCTTTAA | 0.0367
AATGTCAC | 0.184
ATTCTGTC | 0.0937
ACATAGCT | -0.0675
GTTGTCAA | 0.0182
CCCGGTCA | -0.286
GCACATGA | 0.148
AGAAAACC | -0.184
GGAATACC | -0.265
GCTATTAA | 0.117
TCACTTAA | 0.00059
ATATTGAC | 0.148

Sequence | PBM E-score
AAGCCCCT | -0.215
ACCATTAG | 0.0481
GTAATACA | 0.305
CGACGTTA | 0.337
ACTACGGC | -0.0407
CAAGCGGC | -0.157
GACGCGGC | 0.0974
ACTTGACA | 0.26
CTCTTTAC | -0.0251
ATTGACCC | -0.125
ACTCAACG | 0.182
ACTTAAGG | -0.0337
ACGGCGCT | -0.245
ATAGGTGG | -0.135
CAAATCAG | 0.131
GGGGCCCA | -0.277
TACGACGA | 0.117
GGCTCATA | -0.121
CTGATAGC | -0.0862
CATTCCGA | 0.0454
CCTAAATA | 0.0638
AGCACCTC | -0.152
ACCCCAAA | -0.0832
ATATTTCA | 0.143
AACAAGGG | 0.00333

Sequence | PBM E-score
AAACAAAC | 0.0996
AAGATCTG | -0.0413
CTCCCAAA | -0.155
AAAATGGT | 0.052
CGCATCAA | 0.0565
ATGTCCTA | -0.00896
ACATCCCT | -0.0952
TGTAGGAA | -0.036
CACGTCCC | 0.00358
AGGTTGAA | -0.00618
AAGAGCTG | -0.192
AAATACCG | 0.0395
AGGCCCAA | -0.132
TTATAGAA | 0.14
CGCCACAG | -0.198
CCTGTTTC | -0.132
CCGAAATA | 0.199
ATTGAAAG | 0.0132
AGCAGTCA | -0.132
ACTTTTGG | -0.00511
AAACCGTG | 0.00279
CCTGCAGC | -0.09
CCGTTACA | 0.0591
GCCGCATA | -0.00332
TATCCATA | 0.107

Sequence | PBM E-score
TGCCAACA | -0.0861
TATCGGGA | -0.118
AAATAGAT | 0.229
AGTTAGTG | 0.0484
ACCGGCGA | -0.15
ACTGTGAT | 0.0683
CTCTATAA | 0.183
ATAAGCAC | 0.0902
TACTGACA | 0.103
CATATAGG | -0.074
AAACTATC | -0.0519
CTGGGTGC | -0.208
ACATCATC | 0.43
GGCCAATA | -0.114
CGATTCCG | -0.142
AGCTTACA | 0.163
CTCGTAGA | -0.217
GGGAGGAA | -0.152
TAGCGGCA | -0.0879
GAAGTGGA | -0.188
AAACCAGC | -0.185
TCCGGCGA | -0.0144
GACCTCCA | -0.271
CCGGACAA | -0.23
AACGCGGC | -0.139

Sequence | PBM E-score
GGAGTATA | 0.11
CGGTCTTC | -0.218
GTGATCGA | 0.103
CCCATGAG | -0.292
ATGAATGA | 0.181
GGAAAGCC | -0.229
ATTGGCCA | -0.0321
TGGTGCAA | -0.0842
GTCCCTTA | -0.0334
AACGACGA | 0.166
GAGAGCTA | -0.0177
GAAGATGA | 0.169
ACCGTACA | 0.0593
GTACGCCA | 0.293
CTGACTAC | 0.101
ACTAAACG | 0.0963
CACCGCAC | -0.0956
GCATGGCA | -0.0913
CAGCTTGG | -0.268
ACGGGTAA | -0.0611
GCGAAACC | 0.0131
AAAGGAAC | -0.0213
TCTATAGA | -0.114
GCGCCCAA | -0.172
CTAACCTC | -0.0769

Sequence | PBM E-score
GAGGCCCC | -0.481
AGGCCCAT | -0.288
CCGAGAGC | -0.255
ATTAGCAA | 0.282
AAAGGTTA | -0.0111
ACCGCCGC | -0.142
ACCGCGTC | 0.173
TATCGTAA | 0.317
GGTGATAC | -0.104
AAAAGCAG | -0.0731
ACACGTGC | 0.346
ATAAGGAC | 0.0488
CAACGGTA | -0.123
CACAGCAG | -0.133
ACGGGAGC | -0.024
TAGGTCCA | 0.018
CCAGATGA | 0.076
AATACGTA | 0.482
TATCTTAA | 0.0791
ATTATCAC | 0.259
CATGAACG | 0.0833
AGTCTCAC | -0.0619
GGGGGCGA | -0.162
CCCAAGCC | -0.278
CAGCCACA | -0.127

Sequence | PBM E-score
AATCGATT | 0.122
CTGGCACC | -0.303
CTGCGTAC | 0.149
GTGTGTAA | 0.239
AGAACCAC | 0.0726
ACGATCGT | 0.183
CCTCTTGA | -0.0582
GGCCTGTA | -0.355
GTGGGGAA | 0.0417
AAGGCCAT | -0.172
CTGCGCAC | 0.0185
GCCGGTCA | -0.0592
GGTGTTAA | 0.0644
GCGAAACA | -0.0372
ACCATTGC | -0.00825
CGAGTTAC | 0.138
AGAGGTTC | -0.224
CTCAATTC | 0.0494
CTCACGAG | -0.202
ATCATGCA | 0.0642
CCGAATAC | -0.0263
AAATAATG | 0.269
GGACGAAC | 0.0363
GCTAAGCA | -0.107
ATATGGTA | 0.12

Sequence | PBM E-score
AACGTAGT | 0.414
CACATTGA | 0.152
ACCCTGGC | -0.171
GTAAGATA | 0.166
CGTTGTAA | 0.199
TATCAAAA | 0.118
GATCACAA | 0.0768
ATATACAA | 0.219
ACTACATC | 0.274
CTCGTCAC | 0.38
GAAACGGC | -0.117
CAACTTTA | 0.248
GCCCGAGA | -0.148
CCAAGCAC | -0.0447
CCCTTGAA | -0.245
ATCCACCG | -0.0573
ACCGCTAT | -0.0819
TAAGGAGA | -0.0745
ATTTGTGC | 0.101
CCACCTGG | -0.267
CGTGGTAA | 0.199
ATGTTTCG | 0.214
GCAATGCA | -0.018
AGAGCCTG | -0.0792
ACTGGTTG | -0.0847

Sequence | PBM E-score
AGTCAGAC | -0.203
GAAAATGC | 0.0279
AGCCGATC | 0.0331
CAGATACC | -0.169
CCTATCAG | -0.15
ATCAACGG | 0.0111
GCCAGCGC | -0.251
AACCCCTA | -0.215
TCTAAGAA | 0.162
ACAATTAC | 0.298
AGACCGCG | -0.179
ACTCGTAG | -0.00964
GCCGGGCA | -0.285
AGAGATAG | 0.0939
ATACTTGA | 0.00821
AAGGTACG | 0.241
ACTTTGGG | -0.258
CAGACTGC | -0.147
GTGAATGA | 0.231
